Reference: the supplement of paper PMC11417369
± gives the standard deviation of the averaged measurements. Some of the results follow.

Tested on: PfAP2-G AP2 domain (GST-tagged)
Assay: gcPBM binding intensity (ln(normalized median fluorescence intensity)); higher = stronger DNA binding
How it was run: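 Probes on an Agilent 4 × 180k array were primer-extended, double-stranded and 36 bp long, taken from intergenic genomic regions, with negative controls added. GST-tagged P. falciparum DNA-binding domains from E. coli, about 25 μg on average, were applied to the array for 1 h in 1× PBS containing 1% milk, 0.2 mg/ml BSA, 0.5% salmon testes DNA and 0.03% Triton X-100. Binding intensity, obtained after Alexa488 anti-GST antibody detection and a 488 nm scan, is the highest Masliner-normalised natural-log median intensity across replicate spots of either probe orientation.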

| Sequence | gcPBM binding intensity (ln) |
| --- | --- |
| GGACAAGTTAAACGCACACAAATATATACCCCCATA [CACACA_site4996] | 11.2 ± 0.64 |
| AAAAATGATATGAGTTGTACATAAGTAAGAATTATT [XGTACX_site7089] | 11.2 ± 0.73 |
| TAAAAACGATTTTTTGCACACACATAATAAGCAGAA [CACACA_site3870] | 10.3 ± 0.19 |
| TTACCTCTTTGAAATATACACACTAATCATATCAAC [CACACA_site8778] | 10.06 ± 0.057 |
| TTTTTGCTATTCTATTATATATATAATATATTTTAC [CACACA_negctrl_site262] | 9.915 ± 0.064 |
| TGTTCAGTAGGGCACACACACAACAAAATAAAAAAA [CACACA_site378] | 10.6 ± 0.63 |
| GATGTGATGTATTTGGTATTTTTCGATGTTGGTAGG [CACACA_negctrl_site355] | 10.2 ± 0.2 |
| TATTATATATCAAAATGTACATTAATTTGAGTAATT [XGTACX_site5434] | 10.9 ± 0.55 |
| AAGACATTTTTTAAGGTGCTTTGGAAAAAGGAGTAT [GTGCAC_site9816] | 10.1 ± 0.11 |
| GAGATTTATTTATGTGCACACTAGAACAATTGGATC [CACACA_site2090] | 10.6 ± 0.2 |
| CTTTTTTCAAAACACACACACAAGAAAATATATATA [CACACA_site3109] | 10.3 ± 0.35 |
| TTTTTTTTTTTTGTGCGTACATACCATTTTAATAAT [XGTACX_site2760] | 11.6 ± 0.92 |
| AATGAGGATATATACACACATACATTAAAAAAATAT [CACACA_site1849] | 9.93 ± 0.014 |
| AAAAAAAAAAAAAAAAGGGGGGGAGGGATTGAAAAA [CACACA_negctrl_site193] | 11.3 ± 0.71 |
| ACAGTATTTCGAGATGGTACACATATATATATATAT [XGTACX_site6880] | 11.2 ± 0.81 |
| TGATAAATATGGAGCACACACACATAAACATACATA [CACACA_site420] | 10.3 ± 0.18 |
| TTTAAAAGATAAAACACACATACTAATAAAAAACAA [CACACA_site2556] | 10.03 ± 0.042 |
| TTGTATCCTTAATGCATGCACCAAATAACAAAAGTA | 10.2 ± 0.34 |
| TTGTTGTATTATTTATGTACATATGTATATGTATAT [XGTACX_site1315] | 11.3 ± 0.59 |
| ATGAGTTACATGGGAAAAATATATATATATATATAT [CACACA_negctrl_site579] | 10 ± 0.34 |
| ATTATAATTGCATATACACACAAAGGTTCATAACAA [CACACA_site7440] | 10.2 ± 0.2 |
| ACATATATAAAATAATGTACATTTTTAAGAATGCGT [XGTACX_site7654] | 11.1 ± 0.54 |
| ATATTAATATACATATGTACATATATATATATATAT [XGTACX_site7425] | 11.2 ± 0.62 |
| TAAATTATTTATAAAGCACACAAGAAAAAATAAAAT [CACACA_site2132] | 10.2 ± 0.092 |
| AAAATTTAATATAATGCACACATAAAAAAAAATTCA [CACACA_site8640] | 10 ± 0.3 |
